{"source": "patent US20080138834A1", "about": "“Cellular antagonists of GPCR physiology” (Institute Pasteur Korea, priority 2006, published 2008)", "key": {"[1]": {"test_system": "endothelin A receptor", "settings": "for ETAR endocytosis/internalization compared to control / effect on agonist dependent ETAR endocytosis (phenotype): 10 μM compound; for ETAR endocytosis/internalization compared to control: endothelin stimulated; for increase in number of ETAR positive endosomes per cell at the cell periphery: co-treated with erbstatin A or nocodazole; for effect on agonist dependent ETAR endocytosis (phenotype): 40 nM endothelin-1"}, "[2]": {"test_system": "endothelin A receptor", "assay": "Single cell visual screening: ETAR internalization in ETAR:GFP expressing cells", "format": "cell-based, human", "settings": "10 μM compound, 40 nM endothelin", "experimental": "Single cell differential screening. […] (b) 10 μM Erbstatin A. (c) 10 μM H-89 (d) DMSO (e) 40 nM endothelin-1 alone. Confocal images are from a 1 μm Z section. […] Scale bar 5 μm.\nThe effect of the 3 kinase inhibitors affecting ETAR on receptor activation and housekeeping endocytosis were simultaneously imaged in ETAR: GFP expressing cells by internalization of red fluorescent dextran (FIG. 3). […] Thus, inhibition of protein kinase A and C second messenger activated kinases potently altered ETAR GPCR internalization but left housekeeping endocytosis unaffected."}}}
{"compound": "Cn1c2ccccc2c2c3c(c4c5ccccc5n(CCC#N)c4c21)CNC3=O", "note": "[Gö 6976]", "values": [{"measurement": "ETAR internalization", "setting": "[1]; 1 μM compound", "result": "inhibited"}]}
{"compound": "O=S(=O)(NCCNC/C=C/c1ccc(Br)cc1)c1cccc2cnccc12", "note": "[H-89]", "values": [{"measurement": "ETAR endocytosis/internalization compared to control", "setting": "[1]", "result": 1.25, "unit": "fold"}, {"measurement": "dose-response curve to ET-1 in the ETAR assay", "setting": "[1]; cells treated with H-89", "result": "increased the slope of the dose-response curve"}, {"measurement": "increase in number of ETAR positive endosomes per cell at the cell periphery", "setting": "[1]", "result": 1.5, "unit": "fold"}, {"measurement": "ETAR localisation after ET-1 stimulation, single cell imaging", "setting": "[2]", "result": "increased delivery of the receptor to the recycling endosome"}]}
{"compound": "CCCCCCOC(=O)[C@]1(O)C[C@@H]2O[C@@]1(C)n1c3ccccc3c3c4c(c5c6ccccc6n2c5c31)C(=O)NC4", "note": "[KT5720]", "values": [{"measurement": "effect on agonist dependent ETAR endocytosis (phenotype)", "setting": "[1]", "result": "accumulated in the recycling endosome"}, {"measurement": "ETAR endocytosis/internalization compared to control", "setting": "[1]", "result": "> 1.5", "unit": "fold"}, {"measurement": "increase in number of ETAR positive endosomes per cell at the cell periphery", "setting": "[1]", "result": 1.5, "unit": "fold"}]}
{"compound": "CCCCCCCCCCCCCCCC(=O)OC(CC(=O)O)C[N+](C)(C)C.[Cl-]", "note": "(stereo not drawn) [Palmitoyl DL carnitine chloride]", "values": [{"measurement": "effect on agonist dependent ETAR endocytosis (phenotype)", "setting": "[1]", "result": "ETAR arrest at the cell surface"}]}
{"compound": "Cn1cc(C2=C(c3cn(CCCSC(=N)N)c4ccccc34)C(=O)NC2=O)c2ccccc21", "note": "[Ro 31-8220]", "values": [{"measurement": "phorbol ester stimulation of ETAR internalization, simultaneous treatment with PMA", "setting": "[1]; 100 nM PMA plus 10 μM RO 31 8220", "result": "reduced to the negative control level"}, {"measurement": "effect on agonist dependent ETAR endocytosis (phenotype)", "setting": "[1]", "result": "ETAR arrest at the cell surface"}, {"measurement": "ETAR localisation after ET-1 stimulation, single cell imaging", "setting": "[2]", "result": "arrested ETAR at the plasma membrane"}]}
